From the supplement of paper PMC4604168 (melanoma cell lines)
This is one part of the list. Most values come without repeats; read them as rough.

Legend:
Experiment in all cases: cell count relative to DMSO control; melanoma cells; higher = more viable cells
Details in all cases: library dose: low library concentration; 72 h
[1] = test system: WM1745
[2] = test system: WM3526
[3] = test system: WM3619
[4] = test system: WM451Lu
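Further: cell number obtained by counting DAPI-stained nuclei in high-throughput microscope images with image analysis software, screen run in 1,536-well plates.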

Structure (SMILES)	cell count [1]	cell count [2]	cell count [3]	cell count [4]
Oc1cc(-c2nc(-c3ccccc3)[nH]c2-c2ccncc2)ccc1Cl + Cn1cc(/C=C2\C(=O)Nc3cccnc32)c2ccccc21 [GW441756] (first compound 0.2 µM, partner dose 0.4 µM)	79.8%	70.9%	97.8%	120%
Cn1cc(/C=C2\C(=O)Nc3cccnc32)c2ccccc21 + O=c1cc(-c2cccc3c2Sc2ccccc2S3)oc(N2CCOCC2)c1 [KU55933] (first compound 0.4 µM, partner dose 1 µM)	95.7%	104%	97.6%	75.4%
COc1ccc(COc2ccc(Cc3cnc(N)nc3N)cc2OC)cc1 + Oc1nc(-c2ccc(C(F)(F)F)cc2)nc2c1CSCC2 [XAV939] (first compound 1 µM, partner dose 2 µM)	72.2%	105%	99.5%	113%
O=S(=O)(c1ccccc1)N(CC(F)(F)F)c1ccc(C(O)(C(F)(F)F)C(F)(F)F)cc1 + COc1cc(N2CCC(N3CCN(C)CC3)CC2)ccc1Nc1ncc(Cl)c(Nc2ccccc2S(=O)(=O)C(C)C)n1 [NVP-TAE684] (first compound 1.4 µM, partner dose 0.08 µM)	80.7%	78.5%	94.9%	97.6%
COc1ccc(COc2ccc(Cc3cnc(N)nc3N)cc2OC)cc1 + O=C(O)C(=O)Nc1sc2c(c1C(=O)O)CCNC2 [TCS401] (first compound 1 µM, partner dose 1.66667 µM)	77.2%	90.2%	67.6%	112%
COc1cc(N2CCC(N3CCN(C)CC3)CC2)ccc1Nc1ncc(Cl)c(Nc2ccccc2S(=O)(=O)C(C)C)n1 + O=c1cc(-c2cccc3c2Sc2ccccc2S3)oc(N2CCOCC2)c1 [KU55933] (first compound 0.08 µM, partner dose 1 µM)	84.7%	80.8%	90.4%	106%
O=C1NC(=O)/C(=C/c2ccc(-c3ccc(F)cc3O)o2)S1 + Cc1cc([N+](=O)[O-])ccc1NS(=O)(=O)c1cc(Cl)ccc1Cl [FH535] (first compound 1 µM, partner dose 1 µM)	88.8%	97.9%	99.1%	97.3%
CCCCCCCCCCCC1=C(O)C(=O)C=C(O)C1=O [Embelin] + CC(C)CCN1c2nc(Nc3cc(F)c(O)c(F)c3)ncc2N(C)C(=O)C1C [BID1870] (first compound 1.2 µM, partner dose 0.2 µM)	90.5%	82.3%	117%	125%
N#Cc1c(O)c2c(-c3ccc(-c4ccccc4O)cc3)csc2[nH]c1=O + CCCCCCCCCCCC1=C(O)C(=O)C=C(O)C1=O [Embelin] (first compound 2 µM, partner dose 1.2 µM)	88.8%	110%	162%	114%
c1cc(-c2cnn3cc(-c4ccc(OCCN5CCCCC5)cc4)cnc23)ccn1 [Dorsomorphin] + CC(C)CCN1c2nc(Nc3cc(F)c(O)c(F)c3)ncc2N(C)C(=O)C1C [BID1870] (first compound 0.4 µM, partner dose 0.2 µM)	96.4%	88.5%	101%	100%
Cc1cc([N+](=O)[O-])ccc1NS(=O)(=O)c1cc(Cl)ccc1Cl + O=c1cc(-c2cccc3c2Sc2ccccc2S3)oc(N2CCOCC2)c1 [KU55933] (first compound 1 µM, partner dose 1 µM)	82.3%	91.9%	102%	107%
COC(=O)c1sccc1S(=O)(=O)Nc1ccc(Nc2ccccc2)cc1OC + COc1cc(N2CCC(N3CCN(C)CC3)CC2)ccc1Nc1ncc(Cl)c(Nc2ccccc2S(=O)(=O)C(C)C)n1 [NVP-TAE684] (first compound 1 µM, partner dose 0.08 µM)	85.3%	104%	114%	117%
COc1cc2ncnc(Nc3ccc(Oc4ccccc4)cc3)c2cc1OC + CC(C)CCN1c2nc(Nc3cc(F)c(O)c(F)c3)ncc2N(C)C(=O)C1C [BID1870] (first compound 2 µM, partner dose 0.2 µM)	92.9%	105%	109%	120%
O=C1NC(=O)/C(=C/c2ccc(-c3ccc(F)cc3O)o2)S1 + O=c1cc(-c2cccc3c2Sc2ccccc2S3)oc(N2CCOCC2)c1 [KU55933] (first compound 1 µM, partner dose 1 µM)	110%	72.7%	108%	101%
O=S(=O)(c1ccccc1)N(CC(F)(F)F)c1ccc(C(O)(C(F)(F)F)C(F)(F)F)cc1 + CCCCCCCCCCCC1=C(O)C(=O)C=C(O)C1=O [Embelin] (first compound 1.4 µM, partner dose 1.2 µM)	88.3%	78.6%	102%	101%
